Out of some 310,000 compounds screened, about 14,000 (4.5%) showed an effect of 50% or more. The effect is printed as a negative number. The list shows a part of the results.
biological target: human ether-à-go-go-related gene (hERG) potassium channel (human, UniProt Q12809); experiment: primary screen, population patch clamp on CHO cells stably expressing hERG
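Further: peak tail current of the secondary pulse compared with the same well before compound.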

Chain of human ether-à-go-go-related gene (hERG) potassium channel (Q12809 whole entry, looked up): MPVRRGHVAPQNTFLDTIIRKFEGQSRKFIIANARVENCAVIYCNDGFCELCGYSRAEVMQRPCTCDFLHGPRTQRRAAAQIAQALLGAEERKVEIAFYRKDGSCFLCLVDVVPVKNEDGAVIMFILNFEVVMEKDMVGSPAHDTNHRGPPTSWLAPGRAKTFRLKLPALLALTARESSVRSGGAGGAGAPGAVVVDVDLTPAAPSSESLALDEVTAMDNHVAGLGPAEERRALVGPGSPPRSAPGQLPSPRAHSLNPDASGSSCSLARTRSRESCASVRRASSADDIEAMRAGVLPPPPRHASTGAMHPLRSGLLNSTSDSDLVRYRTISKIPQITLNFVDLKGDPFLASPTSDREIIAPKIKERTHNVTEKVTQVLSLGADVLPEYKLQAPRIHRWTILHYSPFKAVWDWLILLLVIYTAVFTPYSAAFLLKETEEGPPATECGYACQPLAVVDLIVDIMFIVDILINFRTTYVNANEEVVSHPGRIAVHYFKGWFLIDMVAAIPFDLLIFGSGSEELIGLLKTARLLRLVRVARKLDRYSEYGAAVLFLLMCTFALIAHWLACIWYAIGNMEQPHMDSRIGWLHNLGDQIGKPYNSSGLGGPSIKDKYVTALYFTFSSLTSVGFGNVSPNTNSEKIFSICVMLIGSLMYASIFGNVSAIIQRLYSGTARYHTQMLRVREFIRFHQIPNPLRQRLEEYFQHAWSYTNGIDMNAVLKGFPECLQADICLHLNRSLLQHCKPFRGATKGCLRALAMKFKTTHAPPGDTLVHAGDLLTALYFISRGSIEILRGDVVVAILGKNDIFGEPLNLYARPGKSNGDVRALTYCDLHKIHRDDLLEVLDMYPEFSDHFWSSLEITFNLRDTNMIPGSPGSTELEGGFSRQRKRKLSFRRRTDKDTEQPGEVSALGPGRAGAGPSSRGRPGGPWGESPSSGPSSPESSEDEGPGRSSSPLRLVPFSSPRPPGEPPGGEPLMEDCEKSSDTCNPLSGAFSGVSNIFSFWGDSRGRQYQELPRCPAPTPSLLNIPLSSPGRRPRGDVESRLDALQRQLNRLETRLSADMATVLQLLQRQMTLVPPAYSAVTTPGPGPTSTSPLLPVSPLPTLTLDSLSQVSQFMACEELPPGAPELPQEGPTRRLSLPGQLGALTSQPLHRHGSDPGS

First: C=CCn1c(SCc2ccc(Cl)c(Cl)c2)nnc1C(CO)NC(=O)c1ccc(OC)cc1 (stereo not drawn)
Second: COCCNC(=O)c1cccc(Nc2nc(-c3ccccc3)c3cc(Cl)ccc3n2)c1
The “hERG current change (%, negative = inhibition) at 10uM” value of the first is lower: -34% for the first, 7.86% for the second.

Compared with `O=C1CCc2cc(S(=O)(=O)NCCC(=O)N3CCN(c4cccc(Cl)c4)CC3)ccc2N1`, `Cc1cccc(N2CCN(C(=O)C3(S(=O)(=O)c4ccc(Cl)cc4)CC3)CC2)c1C` is higher in “hERG current change (%, negative = inhibition) at 10uM” value: -41% for the first, -6.74% for the second.

Going from `COC(=O)c1c(NC(=O)Cc2ccccc2)sc2c1CC(C)(C)NC2(C)C` to `O=C(CNc1ccccc1)NN=C1CCCC1`, the “hERG current change (%, negative = inhibition) at 10uM” value rises from -11.1% to 25.9%.

Compared with `OCC1(CCc2ccccc2)CCN(Cc2ccccc2Cl)CC1`, `c1ccc(CCn2c(C3CC3)nc3ccccc32)cc1` is higher in “hERG current change (%, negative = inhibition) at 10uM” value: -86% for the first, -35.3% for the second.

Going from `Cc1ccc(NC(=O)CN(C)C(=O)COC(=O)CNS(=O)(=O)c2ccc(F)c(F)c2F)cc1` to `C=CCOC(=O)C1=C(C)NC(SCC(=O)OCC)=C(C#N)C1c1ccc(C)cc1` (stereo not drawn), the “hERG current change (%, negative = inhibition) at 10uM” value rises from -23.8% to -10.9%.

Going from `COc1ccc(N(C(=O)c2snc(C(N)=O)c2N)C(C(=O)NC2CCCC2)c2cccs2)c(OC)c1` (stereo not drawn) to `COc1ccc(C(=O)Nc2ncc(C)s2)cc1S(=O)(=O)N1CCOCC1`, the “hERG current change (%, negative = inhibition) at 10uM” value falls from -21.1% to -56.2%.

Going from `O=C(CN1C(=O)/C(=C/c2ccco2)SC1=S)NC1CCS(=O)(=O)C1` (stereo not drawn) to `Cc1ccc(OCCn2cccc2/C=C2/C(=O)NC(=O)N(Cc3ccco3)C2=O)cc1`, the “hERG current change (%, negative = inhibition) at 10uM” value falls from 2.47% to -0.631%.

Going from `Cc1ccc2[nH]c3c(=S)nc[nH]c3c2c1` to `Cc1ccc(-c2ocnc2C(=O)Nc2nc(C)cs2)cc1`, the “hERG current change (%, negative = inhibition) at 10uM” value falls from 18.9% to 8.54%.

First: S=C(NCCN1CCOCC1)Nc1ccc(Cl)c(Cl)c1
Second: COc1ccc(N2CCN(C(=S)NCCc3ccccc3)CC2)cc1
The “hERG current change (%, negative = inhibition) at 10uM” value of the first is lower: -10.5% for the first, -5.71% for the second.

First: Cc1cc(Cl)ccc1OCCCC(=O)Nc1cccnc1
Second: CC(=O)Nc1ccc2nc(-c3cccnc3)[nH]c2c1
The “hERG current change (%, negative = inhibition) at 10uM” value of the first is lower: -20.7% for the first, 3.5% for the second.

Going from `CCc1nnc(NC(=O)CCc2ccc(C)o2)s1` to `CCOC(=O)c1cn(CC)c2ccc(S(=O)(=O)N3CC(C)CC(C)C3)cc2c1=O` (stereo not drawn), the “hERG current change (%, negative = inhibition) at 10uM” value falls from 1.71% to -21.7%.

First: O=C(NCC1CCCO1)NC12CC3CC(CC(C3)C1)C2 (stereo not drawn)
Second: O=S(=O)(Nc1ccc(-c2ccc3nncn3n2)cc1)c1ccccc1Cl
The “hERG current change (%, negative = inhibition) at 10uM” value of the first is higher: 11.6% for the first, 5.08% for the second.
